# Reference: the supplement of paper PMC8728848
# Some of the results follow.
# B1: PX14367B-bvu-516-23-516 (Bacteroides vulgatus) (protein)
# chain: LDTIPTTYVDAGSVFGKTGDAEKVLNGGWNYLMETFNSYANPGYGAMLRANDAMGSDVVLNSKYGFRTHNEFSAIYGKGGTNTLSWLLAYRVINDCNGVLDNIDAAEGTQADRNRIKGQALALRGFLYLHLASCYSFAIDKDPDAVCAPIYTQSTDETIAAEGKPASSVSEVYAQSINDLEEALELIPETYVRDAKHKIDNEVVLGILSRACLYARQWEKAKTYSDKLLAKDNYLMTESEYKAGFNSVDNKEWIWGHAQTNDQSNASYQFHYLDTTTKGSYYYSFNVDPYFRDLFEDGDYRKEMLFWATDPGADVESAAYVWMRNSKFRFRDIENQLGDIVLMRVAEIYLINAEAKAHLNDPDAINKLNDLKTARGAKTIHTNLSQQDLLETIWLERRKELWGEGFSLIDIIRNQQTVVRNAYPEGPIDYIYTDENGQTHTLKKKTQGHRFFNFPDKSAFCPNSKYYLYRITDSEELANKNLYKDHPKLSIYTK
# Legend:
# Assay in all cases: glycan array binding signal (z-score within array); higher = stronger binding
# Conditions in all cases: glycan notation: IUPAC condensed, linker removed
# [1] = biological target: Neu5Ac(a2-6)GlcNAc(b1-4)GlcNAc(b1-4)GlcNAc
# Outline: (§1)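 The Consortium for Functional Glycomics database supplied 3228 glycan arrays, of which those lacking an available protein sequence were dropped. The binding signal, a within-array Z-score, was averaged across arrays of the same protein sequence and across linkers. Negative scores can be read as non-binding.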
# Neu5Ac(a2-8)Neu5Ac = biological target: Neu5Ac(a2-8)Neu5Ac
# Outline: as §1
# [2] = biological target: Neu5Ac(a2-8)Neu5Ac(a2-3)Gal(b1-3)GalNAc(b1-4)[Neu5Ac(a2-3)]Gal(b1-4)Glc
# Outline: as §1
# [3] = biological target: Neu5Ac(a2-8)Neu5Ac(a2-3)Gal(b1-3)GalNAc(b1-4)[Neu5Ac(a2-8)Neu5Ac(a2-3)]Gal(b1-4)Glc
# Outline: as §1
# [4] = biological target: Neu5Ac(a2-8)Neu5Ac(a2-3)Gal(b1-4)Glc
# Outline: as §1
# [5] = biological target: Neu5Ac(a2-8)Neu5Ac(a2-3)Gal(b1-4)GlcNAc
# Outline: as §1
# [6] = biological target: Neu5Ac(a2-8)Neu5Ac(a2-3)[Gal(b1-3)GalNAc(b1-4)]Gal(b1-4)Glc
# Outline: as §1
# [7] = biological target: Neu5Ac(a2-8)Neu5Ac(a2-3)[GalNAc(b1-4)]Gal(b1-4)Glc
# Outline: as §1
# [8] = biological target: Neu5Ac(a2-8)Neu5Ac(a2-8)Neu5Ac
# Outline: as §1
# [9] = biological target: Neu5Ac(a2-8)Neu5Ac(a2-8)Neu5Ac(a2-3)Gal(b1-4)Glc
# Outline: as §1
# [10] = biological target: Neu5Ac(a2-8)Neu5Ac(a2-8)Neu5Ac(a2-3)[Gal(b1-3)GalNAc(b1-4)]Gal(b1-4)Glc
# Outline: as §1
# [11] = biological target: Neu5Ac(a2-8)Neu5Ac(a2-8)Neu5Ac(a2-3)[GalNAc(b1-4)]Gal(b1-4)Glc
# Outline: as §1
# [12] = biological target: Neu5Ac(a2-8)Neu5Ac(a2-8)Neu5Ac(a2-8)Neu5Ac(a2-3)[GalNAc(b1-4)]Gal(b1-4)Glc
# Outline: as §1
# [13] = biological target: Neu5Ac(a2-8)Neu5Gc(a2-3)Gal(b1-4)GlcNAc
# Outline: as §1
# [14] = biological target: Neu5Ac(b2-6)Gal(b1-4)GlcNAc
# Outline: as §1
# Neu5Ac(b2-6)GalNAc = biological target: Neu5Ac(b2-6)GalNAc
# Outline: as §1
# [15] = biological target: Neu5Ac9Ac(a2-3)Gal(b1-3)GlcNAc
# Outline: as §1
# [16] = biological target: Neu5Ac9Ac(a2-3)Gal(b1-4)GlcNAc
# Outline: as §1
# [17] = biological target: Neu5Ac9Ac(a2-6)Gal(b1-4)GlcNAc
# Outline: as §1
# [18] = biological target: Neu5Gc(a2-3)Gal(b1-3)GlcNAc
# Outline: as §1
# [19] = biological target: Neu5Gc(a2-3)Gal(b1-3)[Fuc(a1-4)]GlcNAc
# Outline: as §1
# Neu5Gc(a2-3)Gal(b1-4)Glc = biological target: Neu5Gc(a2-3)Gal(b1-4)Glc
# Outline: as §1
# [20] = biological target: Neu5Gc(a2-3)Gal(b1-4)GlcNAc
# Outline: as §1
# [21] = biological target: Neu5Gc(a2-3)Gal(b1-4)GlcNAc(b1-3)Gal(b1-4)GlcNAc(b1-2)Man(a1-3)[Neu5Gc(a2-3)Gal(b1-4)GlcNAc(b1-3)Gal(b1-4)GlcNAc(b1-2)Man(a1-6)]Man(b1-4)GlcNAc(b1-4)GlcNAc
# Outline: as §1
# [22] = biological target: Neu5Gc(a2-3)Gal(b1-4)[Fuc(a1-3)]GlcNAc
# Outline: as §1
# [23] = biological target: Neu5Gc(a2-6)Gal(b1-4)GlcNAc
# Outline: as §1
# Neu5Gc(a2-6)GalNAc = biological target: Neu5Gc(a2-6)GalNAc
# Outline: as §1
# [24] = biological target: Neu5Gc(a2-8)Neu5Ac(a2-3)Gal(b1-4)GlcNAc
# Outline: as §1
# [25] = biological target: Neu5Gc(a2-8)Neu5Gc(a2-3)Gal(b1-4)GlcNAc
# Outline: as §1
# [26] = biological target: Neu5Gc(a2-8)Neu5Gc(a2-3)Gal(b1-4)GlcNAc(b1-3)Gal(b1-4)GlcNAc
# Outline: as §1
# [27] = biological target: Neu5Gc(a2-8)Neu5Gc(a2-6)Gal(b1-4)GlcNAc
# Outline: as §1
# [28] = biological target: Neu5Gc(b2-6)Gal(b1-4)GlcNAc
# Outline: as §1
binder,measurement,setting,value
B1,glycan array binding signal (z-score),[1],-0.141
same,glycan array binding signal (z-score),Neu5Ac(a2-8)Neu5Ac,-0.346
same,glycan array binding signal (z-score),[2],-0.208
same,glycan array binding signal (z-score),[3],-0.393
same,glycan array binding signal (z-score),[4],-0.365
same,glycan array binding signal (z-score),[5],-0.353
same,glycan array binding signal (z-score),[6],-0.337
same,glycan array binding signal (z-score),[7],0.572
same,glycan array binding signal (z-score),[8],-0.342
same,glycan array binding signal (z-score),[9],-0.319
same,glycan array binding signal (z-score),[10],-0.208
same,glycan array binding signal (z-score),[11],1.71
same,glycan array binding signal (z-score),[12],0.233
same,glycan array binding signal (z-score),[13],2.09
same,glycan array binding signal (z-score),[14],-0.278
same,glycan array binding signal (z-score),Neu5Ac(b2-6)GalNAc,-0.322
same,glycan array binding signal (z-score),[15],-0.261
same,glycan array binding signal (z-score),[16],-0.352
same,glycan array binding signal (z-score),[17],-0.359
same,glycan array binding signal (z-score),[18],-0.306
same,glycan array binding signal (z-score),[19],-0.333
same,glycan array binding signal (z-score),Neu5Gc(a2-3)Gal(b1-4)Glc,-0.273
same,glycan array binding signal (z-score),[20],-0.211
same,glycan array binding signal (z-score),[21],-0.208
same,glycan array binding signal (z-score),[22],-0.344
same,glycan array binding signal (z-score),[23],-0.141
same,glycan array binding signal (z-score),Neu5Gc(a2-6)GalNAc,-0.272
same,glycan array binding signal (z-score),[24],-0.243
same,glycan array binding signal (z-score),[25],-0.3
same,glycan array binding signal (z-score),[26],-0.207
same,glycan array binding signal (z-score),[27],-0.3
same,glycan array binding signal (z-score),[28],0.617
